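Cultured in 96-well plates, cells were exposed to test compound for 48 hours across five concentrations. The concentration for 50% growth inhibition is given as GI50.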 Active and inactive are the calls of the source. Cut-off read from the data, not from the text of the source: active = GI50 up to about 1.1 µM and inactive = higher.
system: NCI-H322M; assay: NCI tumour cell line growth inhibition, 48 h

Row | SMILES | GI50
1 | Cc1cc(O)nc(NN2C(Cl)C(=O)C2c2cccc(O)c2)n1 (stereo not given) | inactive: 24.4 µM
2 | COc1cc(Cn2c(=S)ss/c2=N\C(=S)N(C)C)cc(OC)c1OC | inactive: > 46.7 µM
3 | CCN(CC)CCN(C)CCc1ccc(Br)cc1 | inactive: > 100 µM
4 | Nc1c2ccccc2nc2c1ccc1ncccc12 | inactive: 15.1 µM
5 | Clc1ccc2c(c1)C1C(CO2)C(c2ccccc2)=NN1c1ccccc1 (stereo not given) | inactive: > 100 µM
6 | Cc1[nH]c(=O)nc(N/N=C/c2ccc(Cl)cc2)c1C(=O)Nc1ccc(Cl)cc1 | inactive: 42.7 µM
7 | Cc1ccc(S(=O)(=O)n2cc(-c3cnc(N)c(Br)n3)c3ccccc32)cc1 | inactive: 3.48 µM
8 | CN(CCNC(=O)c1c[nH]c2c1Cc1ccccc1-2)CCNC(=O)c1c[nH]c2c1Cc1ccccc1-2 | inactive: 47.2 µM
9 | O=C1CC(O)(c2ccccc2)C(c2ccccc2)=C1c1ccccc1 (stereo not given) | inactive: 81.8 µM
10 | CC1CC(=O)NC2CC1C2(C)C (stereo not given) | inactive: > 100 µM
11 | C=CCOC(=O)C1C2OC3(C(C(=O)OC)=C2C(=O)OC)c2ccccc2CCC13 (stereo not given) | inactive: > 10 µM
12 | Oc1c([Si](c2ccccc2)(c2ccccc2)c2ccccc2)cc2ccccc2c1-c1c(O)c([Si](c2ccccc2)(c2ccccc2)c2ccccc2)cc2ccccc12 | inactive: > 100 µM
13 | O=C(O)c1ccccc1-c1ccccc1C(=O)c1ccccc1 | inactive: > 100 µM
14 | Cc1ccc(N2C(=O)C3C=CC(n4[nH]c(=O)n(Cc5ccccc5)c4=O)CC3C2=O)cc1 (stereo not given) | inactive: > 100 µM
15 | CC(=O)NC(CCCCN(Cc1ccccc1)C(=O)NCCCl)C(=O)NCc1ccccc1 (stereo not given) | inactive: > 100 µM
16 | COC(=O)C1=CCON(c2ccccc2)C1c1ccccc1 (stereo not given) | inactive: 86.5 µM
17 | O=C(Cc1nc2ccccc2s1)Nc1ccc(Cl)cc1 | inactive: > 100 µM
18 | CCCc1cc(COC)c(C#N)c(O)n1 | inactive: > 100 µM
19 | CC(C)(C)OC(=O)C1=C(N)N(Cc2ccccc2)C2(C)C=CC(=O)C=C12 (stereo not given) | inactive: 16.9 µM
20 | CN(CCC(=O)O)C1=Nc2ccc(Cl)cc2C(c2ccccc2)=[N+]([O-])C1 | inactive: > 100 µM
21 | CCCN(CCCCN1C(=O)c2ccccc2C1=O)CC1COc2ccccc2O1 (stereo not given) | inactive: > 100 µM
22 | COC(=O)N/N=C(\C)C(CN1CCCCC1)C(C1=C(O)c2ccccc2OC1)c1ccccc1 (stereo not given) | inactive: > 100 µM
23 | Cc1csc(NNC(N)=O)n1 | inactive: > 100 µM
24 | Cc1ccc(S(=O)(=O)N/N=C2/C(=O)Nc3c(Cl)cc(Cl)cc32)cc1 | inactive: 74.6 µM

Row | SMILES | GI50
25 | Cc1cn(C2CC(O)C(Cn3cc(Cn4nc(Br)c(=O)[nH]c4=O)nn3)O2)c(=O)[nH]c1=O (stereo not given) | inactive: > 100 µM
26 | CCCOc1ccc(/C=C/c2cc(OC)c(OC)c(OC)c2)cc1 | active: 0.483 µM
27 | CCOC(=O)c1c(SCCCN2CCCCC2)n(-c2ccccc2)c(=S)n(-c2ccccc2)c1=O | inactive: 18.2 µM
28 | Cc1ccc(NP(=O)(Oc2ccccc2)N(CCCl)CCCl)cc1 (stereo not given) | inactive: > 100 µM
29 | CCCCCCN(CCCCCC)C(=O)Cc1c2n(c3ccccc13)Cc1ccccc1-2 | inactive: > 100 µM
30 | CC1=C(C(=O)OC(C)(C)C)C(c2ccc([N+](=O)[O-])cc2)C(C(=O)OC(C)(C)C)=C(C)N1 | inactive: 18.3 µM
31 | COc1ccccc1NC(=O)C1=C(C)NC(C)=C(C(=O)Nc2ccccc2OC)C1c1ccc([N+](=O)[O-])cc1 | inactive: > 100 µM
32 | COC(=O)c1ccc(C)cc1C1CN=NC12Cc1cc(C)c(C)cc1C2=O (stereo not given) | inactive: > 100 µM
33 | Cc1ccc(S(=O)(=O)OCC23CCC(C2)C2CC23)cc1 (stereo not given) | inactive: > 100 µM
34 | Cc1ccc(S(=O)(=O)Nn2c(S)c(C#N)c(-c3ccc([N+](=O)[O-])cc3)c(C#N)c2=O)cc1 | inactive: 56.5 µM
35 | CCCC(C)n1c(C)nc2c1C(=O)c1ccccc1C2=O (stereo not given) | inactive: 48.2 µM
36 | COC(C(O)CO)C(O)C(O)C(=O)NNc1ccccc1 (stereo not given) | inactive: 42.9 µM
37 | O=S1(=O)CS(=O)(=O)OCCO1 | inactive: 78.3 µM
38 | CCOC(=O)C1OC(C2(C)OC3(OC4(C=CC3O)OC(C(C)C(=O)C(C)C(O)C(C)CC(C)c3c(Cl)cc(C)c(O)c3C(=O)O)C(C)CC4C)C(C)C2OC)CC1O (stereo not given) | active: 0.964 µM
39 | COc1ccc2c3c([nH]c2c1)[C@H](C=C(C)C)N1C(=O)[C@@H]2CCCN2C(=O)[C@@H]1C3 [FUMITREMORGIN] | inactive: > 100 µM
40 | CC(=O)Nc1ccc(Nc2nc(=O)[nH]c(=O)[nH]2)cc1 | inactive: > 100 µM
41 | Nc1ncnc2c1ncc(=O)n2C1CC(O)C(CO)O1 (stereo not given) | inactive: > 100 µM
42 | NC(=O)c1ccccc1NC(=O)C(=O)C(C(=O)c1ccc(Cl)c(Cl)c1)C1OC(=O)c2ccccc21 (stereo not given) | inactive: 36.5 µM
43 | CCOC1Oc2ccccc2-c2nc(N)ncc21 (stereo not given) | inactive: > 100 µM
44 | Cc1cc(=O)n2c3c(c4c(cc13)c(CO)cc(=O)n4C)OC2 | inactive: 6.04 µM
45 | COC(=O)/C1=C/C=C\C[C@@]2(C)CC(c3ccoc3)OC(=O)[C@@H]2CC[C@H]1C (stereo not given in full) | inactive: > 25 µM
46 | COC(=O)C(C/C=C(\C)c1ccc(Cl)cc1)C(C)=O (stereo not given) | inactive: 97.7 µM
47 | O=C1OC(c2ccccc2)=N/C1=C/NC(Cc1ccc(O)cc1)C(=O)O (stereo not given) | inactive: > 100 µM
48 | CCOC(=O)C(NC(=O)CC)(Nc1ccc(S(=O)(=O)Nc2nc(C)cc(C)n2)cc1)C(F)(F)F (stereo not given) | inactive: > 100 µM

Row | SMILES | GI50
49 | CO/C=C/c1cc2c(cc1C(OC)OC)OCO2 | inactive: 55 µM
50 | COC(=O)c1cc(O)ccc1NC(=O)c1ccc(O)cc1 | inactive: > 100 µM
51 | NC(Cc1ccc2nc3c4ccccc4c(=O)cc-3oc2c1)C(=O)O (stereo not given) | inactive: > 100 µM
52 | O=[N+]([O-])c1ccc(Cl)c(/C=N/C23CC4CC(CC(C4)C2)C3)c1 | inactive: > 10 µM
53 | Cc1cc(C)nc(NC(=O)COc2ccc(Cl)cc2)c1 | inactive: > 100 µM
54 | CC(C)(c1ccccc1)c1ccc(OC#N)cc1 | inactive: > 100 µM
55 | C[N+]12C=CC=C1C(N1CCCC1)c1scc(-c3ccc(Br)cc3)c12 (stereo not given) | inactive: 86.3 µM
56 | COc1ccc(Nc2nc3ccccc3nc2-c2cccs2)cc1 | inactive: > 100 µM
57 | CN1CCCC2C(c3ccccc3)C(C3=NCCCC3)C(c3ccccc3)CC21 (stereo not given) | inactive: 52.5 µM
58 | O=S(=O)(O)c1cccc2c(/N=N/c3c(O)ccc4ccccc34)cccc12 | inactive: > 100 µM
59 | CCOC(=O)c1ccc(C(=O)n2ccnc2)[nH]1 | inactive: > 100 µM
60 | COc1ccccc1C1(c2c(OC)c(=O)c2=O)SCCCS1 | inactive: > 100 µM
61 | O=C(NCCCCCCNC(=O)NC1OCC(O)C(O)C1O)NC1OCC(O)C(O)C1O (stereo not given) | inactive: > 100 µM
62 | COc1cc(/C=N\c2ccc(C(C)C)cc2)cc(OC)c1OC | inactive: > 100 µM
63 | CSc1ncc2c(n1)-c1ccccc1OC2NC(C)(C)C (stereo not given) | inactive: 49 µM
64 | CCCC1CCC(=C2C(=O)CCC2=O)O1 (stereo not given) | inactive: > 100 µM
65 | Brc1ccc(/N=C/C=C(\Nc2ccc(Br)cc2)C23CC4CC(CC(C4)C2)C3)cc1 | inactive: > 55.5 µM
66 | CN1C(=O)N(c2ccccc2)C2(CCN(CC3COc4ccccc4O3)CC2)C1=O (stereo not given) | inactive: > 100 µM
67 | COC(=O)c1ccc2c(c1)CCN2C(=O)c1cc2c(cc1Br)OCO2 | inactive: 16.3 µM
68 | Cc1ccc(C#CS(=O)(=O)C(F)(F)F)cc1 | inactive: > 100 µM
69 | CCC(C)c1c(Cl)nc(Cl)nc1Cl (stereo not given) | inactive: 10.6 µM
70 | COCCN(C(=O)c1ccccc1)C1CCC2(SCCS2)c2[nH]c3ccccc3c21 (stereo not given) | inactive: 97.7 µM
71 | O=c1cn[nH]c(=S)n1/N=C/c1c[nH]c2ccccc12 | inactive: > 100 µM
72 | Nc1c(O)c(C(=O)O)cc2ccccc12 | inactive: 14.5 µM

Row | SMILES | GI50
73 | COc1ccccc1-n1cnc2c1=NC(C)(C)NC=2C(N)=O | inactive: > 100 µM
74 | COc1cc(C)cc(C(=O)OCc2ccccc2)c1C1=C(Cl)C(=O)C(Cl)=CC1=O | inactive: > 10 µM
75 | O=C(O)C(Cc1ccccc1)N1C(=O)c2ccccc2C1=O (stereo not given) | inactive: > 100 µM
76 | COc1ccc2nc3c([N+](=O)[O-])ccc4c3c(c2c1)N=CN4CCN(C)C | inactive: 4.03 µM
77 | COC(CNC(=O)C(C)NC(=O)/C=C/c1ccccc1)OC (stereo not given) | inactive: > 100 µM
78 | O=C(NCc1ccc(Cl)cc1)c1cc2sccc2nc1C(F)(F)F | inactive: 30.6 µM
79 | CC(N/N=N/c1ccc(-c2nc3ccccc3[nH]2)cc1)C(=O)O (stereo not given) | inactive: 60 µM
80 | CC(C)(C)OC(=O)N(CCCN)CCCCN | inactive: > 100 µM
81 | COC(=S)OC1CC(n2cnc3c(=O)[nH]cnc32)OC1CO[Si](C)(C)C(C)(C)C (stereo not given) | inactive: > 100 µM
82 | N#CC1(C#N)C(=O)c2ccncc2C1=O | inactive: > 100 µM
83 | CO/N=C(\C(=O)[N-]n1cn[n+](CC(=O)OC(C)(C)C)c1)c1csc(NC(c2ccccc2)(c2ccccc2)c2ccccc2)n1 | inactive: > 10 µM
84 | CCOC(=O)C1=CNC(C(=O)OCC)C1c1cccn1-c1ccc(Cl)cc1[N+](=O)[O-] (stereo not given) | inactive: 23.2 µM
85 | C=CCC1(OCc2ccccc2)C(=O)C(=O)OC1C1COC(C)(C)O1 (stereo not given) | inactive: > 100 µM
86 | Oc1cc(-c2cccc3ccccc23)nc2ncccc12 | active: 0.0449 µM
87 | CC(=O)/C(=C/N1CC(=O)NC1=S)C(=O)Nc1ccccc1C | inactive: > 100 µM
88 | Cc1c2ccccc2c(C)n2c1nc1cc3ccccc3cc12 | inactive: 1.19 µM
89 | COc1cc(C2S/C(=C/c3ccccc3)C(=O)N2Cc2ccccc2)cc(OC)c1OC (stereo not given) | inactive: > 100 µM
90 | CC1(C)C(c2ccccc2)=NN(O)c2ccccc21 | inactive: > 100 µM
91 | OC1C2CCC3C2CC(C(O)(c2ccccc2)c2ccccc2)C13 (stereo not given) | inactive: 58.7 µM
92 | CN1CCN(CC(=O)Nc2cccc3ccccc23)CC1 | inactive: > 100 µM
93 | Cc1ccc(NC(=O)C2C(=O)N(c3ccc(C)c(C)c3)C(=O)/C2=N\NC(N)=O)cc1C (stereo not given) | inactive: > 100 µM
94 | CC1=NN(c2nc(N)nc(/C(C#N)=C/c3ccccc3O)n2)C(C)(C)C1 | inactive: 19.4 µM
95 | CC1=NN(C(=O)c2ccc(Cl)cc2)C(=O)/C1=C/c1cccc([N+](=O)[O-])c1 | inactive: > 100 µM

Reference: ChEMBL document CHEMBL1201862, “PubChem BioAssay data set” (2004)
